# From the supplement of paper PMC11348887
# Structures can show the parent of a compound that is named as a salt. This is one part of the list. No stated cut-off is given here; in the data, active = -2 or less and inactive = the rest. Most values come without repeats; read them as rough.
# System: hPSC-derived cortical neurons (WA09)
# Assay: nuclei number (viability) z-score; higher = more surviving cells
# Settings: 5 µM; treatment: days 7-14 after plating, readout day 21
# 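Further: nuclei counted from DAPI counterstain by automated high-content image analysis, four fields per well at ×20 in 384-well plates, with sequential b-score then z-score normalization.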
row,SMILES,nuclei number (z-score)
1,CC1=NN(c2ccccc2)C(=O)C1 [Edaravone],inactive: -0.81
2,CCOc1ccc2ccccc2c1C(=O)N[C@@H]1C(=O)N2[C@@H]1SC(C)(C)[C@@H]2C(=O)O [Nafcillin Sodium],inactive: -0.307
3,CCN(CC)CCNC(=O)c1cc(Cl)c(N)cc1OC [MetoclopraMide HCl],inactive: 3.45
4,C=C1/C(=C\C=C2/CCC[C@]3(C)[C@@H]([C@H](C)CCCC(C)C)CC[C@@H]23)C[C@@H](O)C[C@@H]1O [Alfacalcidol],inactive: 2.25
5,CCC[C@@H]1C[C@@H](C(=O)N[C@@H]([C@H]2O[C@H](SC)[C@H](O)[C@@H](O)[C@H]2O)[C@H](C)Cl)N(C)C1 [Clindamycin HCl],inactive: -0.105
6,CCC[C@@H]1C[C@@H](C(=O)N[C@@H]([C@H]2O[C@H](SC)[C@H](O)[C@@H](O)[C@H]2O)[C@H](C)Cl)N(C)C1 [Clindamycin],active: -2.43
7,CO[C@H]1/C=C\C=C(/C)C(=O)NC2=CC(=O)C(NCCN(C)C)=C(C[C@@H](C)C[C@H](OC)[C@H](O)[C@@H](C)/C=C(\C)[C@@H]1OC(N)=O)C2=O [17-DMAG (Alvespimycin) HCl],active: -4.1
8,O=C(N[C@H](CO)[C@H](O)c1ccc([N+](=O)[O-])cc1)C(Cl)Cl [Chloramphenicol],inactive: -0.419
9,O=C(O)CCNC(=O)c1ccccc1 [Betamipron],inactive: 2.22
10,CC(NC(=O)c1ccccc1/N=C/c1c(O)ccc2ccccc12)c1ccccc1 (configuration not stated) [Sirtinol],inactive: 0.689
11,Cc1cccc(-c2[nH]c(C(C)(C)C)nc2-c2ccc3c(c2)OCO3)n1,inactive: 2.33
12,CC(C)(OCc1nn(Cc2ccccc2)c2ccccc12)C(=O)O [Bindarit],inactive: -0.198
13,CCCN1CCCC[C@H]1C(=O)Nc1c(C)cccc1C [Ropivacaine HCl],inactive: 1.12
14,Cc1c(C(=O)NN2CCCCC2)nn(-c2ccc(Cl)cc2Cl)c1-c1ccc(I)cc1,inactive: 1.77
15,CCc1nc(N)nc(N)c1-c1ccc(Cl)cc1 [Pyrimethamine],inactive: -0.273
16,CC(C)NCC(O)COc1ccc(CCOCC2CC2)cc1 (configuration not stated) [Betaxolol HCl],inactive: -0.32
17,CC(C)NCC(O)COc1ccc(CCOCC2CC2)cc1 (configuration not stated) [Betaxolol],inactive: 1.32
18,CN1CC(=O)N2[C@H](c3ccc4c(c3)OCO4)c3[nH]c4ccccc4c3C[C@@H]2C1=O [Tadalafil],inactive: -0.106
19,CCN(C(=O)c1c(O)c2c(Cl)cccc2n(C)c1=O)c1ccccc1 [Laquinimod],inactive: 2.03
20,CCOc1nc2cccc(C(=O)OCc3oc(=O)oc3C)c2n1Cc1ccc(-c2ccccc2-c2noc(=O)[nH]2)cc1 [Azilsartan Medoxomil],inactive: 0.8
21,COc1ccc(NS(=O)(=O)c2sc3ccc(Cl)cc3c2C)cc1N1CCNCC1,inactive: 0.942
22,C1COC(NC(C2CC2)C2CC2)=N1 [Rilmenidine Phosphate],inactive: 1.5
23,COc1cc(OC2CCN(C)CC2)ccc1Nc1ncc2c(n1)n(C1CCCC1)c(=O)n2C,inactive: 0.349

row,SMILES,nuclei number (z-score)
1,C#CCN[C@@H]1CCc2ccccc21 [Rasagiline Mesylate],inactive: 0.579
2,CCOC(=O)O[C@]1(C(=O)OCCl)CC[C@H]2[C@@H]3CCC4=CC(=O)C=C[C@]4(C)[C@H]3[C@@H](O)C[C@@]21C [Loteprednol etabonate],inactive: -0.232
3,CCc1c2c(nc3ccc(O)cc13)-c1cc3c(c(=O)n1C2)COC(=O)[C@]3(O)CC,inactive: -0.601
4,CCN(C)S(=O)(=O)Nc1ccc(F)c(C(=O)c2c[nH]c3ncc(-c4cnc(C5CC5)nc4)cc23)c1F,inactive: 0.301
5,O=C(NCC1(c2nc(-c3ccccc3)cs2)CCOCC1)c1cccc(-c2noc(C(F)(F)F)n2)c1,inactive: 1.34
6,CC(C)C(=O)Oc1ccc(CO)cc1[C@H](CCN(C(C)C)C(C)C)c1ccccc1 [Fesoterodine Fumarate],inactive: 0.432
7,Cc1nn(-c2ccccc2)c(C)c1C=NN1CCN(Cc2ccccc2)CC1,inactive: 0.0858
8,Cc1ccc(NC(=O)c2ccc(CN3CCN(C)CC3)cc2)cc1Nc1nccc(-c2cccnc2)n1 [Imatinib (STI571)],inactive: -1.07
9,Cc1ccc(NC(=O)c2ccc(CN3CCN(C)CC3)cc2)cc1Nc1nccc(-c2cccnc2)n1 [Imatinib Mesylate (STI571)],inactive: 0.229
10,O=C(O)C(=O)O.[NH-][C@@H]1CCCC[C@H]1[NH-].[Pt+2] [Oxaliplatin],inactive: -0.167
11,C[C@H]1c2cccc(O)c2C(=O)C2=C(O)[C@]3(O)C(=O)C(C(N)=O)=C(O)[C@@H](N(C)C)[C@@H]3[C@@H](O)[C@@H]21 [Doxycycline Hyclate],inactive: 4.55
12,C[C@H]1c2cccc(O)c2C(=O)C2=C(O)[C@]3(O)C(=O)C(C(N)=O)=C(O)[C@@H](N(C)C)[C@@H]3[C@@H](O)[C@@H]21 [Doxycycline HCl],inactive: -0.522
13,COc1cc2c(cc1OC)CC(=O)N(CCCN(C)C[C@H]1Cc3cc(OC)c(OC)cc31)CC2 [Ivabradine HCl],inactive: -0.604
14,Cc1c(C(=O)NN2CCCCC2)nn(-c2ccc(Cl)cc2Cl)c1-c1ccc(Cl)cc1 [Rimonabant],inactive: -1.67
15,COc1cc2c(c(OC)c1OC)-c1c(cc3c(c1OC)OCO3)CC(C)C(C)C2 (configuration not stated) [Schisandrin B (Sch B)],inactive: 0.0425
16,CCOC(=O)c1cnc2ccc(-c3cncc(NS(=O)(=O)c4ccccc4)c3)cn12,inactive: 0.578
17,C[C@](N)(Cc1ccc(O)c(O)c1)C(=O)O [Methyldopa],inactive: -0.924
18,C[C@@H](Nc1cc(F)cc(F)c1)c1cc(C(=O)N(C)C)cc2c(=O)cc(N3CCOCC3)oc12,inactive: -0.229
19,Clc1ccc(C(Cn2ccnc2)OCc2ccsc2Cl)c(Cl)c1 (configuration not stated) [Tioconazole],inactive: -0.421
20,COc1cc(C(=O)N2CCC(N3CCN(C)CC3)CC2)ccc1Nc1ncc2c(n1)N(C)c1ccccc1C(=O)N2C,active: -2.31
21,COc1ccccc1S(=O)(=O)Nc1ccc2c(c1)CN(C)C(=O)N2,inactive: 0.176
22,FC(F)c1nc2ccccc2n1-c1nc(N2CCOCC2)nc(N2CCOCC2)n1,inactive: 0.992
23,CN(C(=O)CNC(=O)/C=C/c1cccc(Cl)c1)C1CCS(=O)(=O)CC1,inactive: -0.178

row,SMILES,nuclei number (z-score)
1,CCN1CCN(c2cc3c(cc2F)c(=O)c(C(=O)O)cn3C2CC2)CC1 [Enrofloxacin],inactive: -0.203
2,O=C1C2CC3CC1CC(O)(C3)C2 [Idramantone],inactive: 0.172
3,Cc1nnc(NS(=O)(=O)c2ccc(N)cc2)s1 [Sulfamethizole],inactive: 1.15
4,CC(C)Oc1ccc(C(=O)N[C@H](CNC(=O)CN(C)C)Cc2ccc(-c3cn4cccc([C@H](C)O)c4n3)cc2)cc1Cl,inactive: 0.432
5,C[C@@H]1C[C@H]2[C@@H]3CCC4=CC(=O)C=C[C@]4(C)[C@@]3(F)[C@@H](O)C[C@]2(C)[C@@]1(O)C(=O)CO [Dexamethasone (DHAP)],inactive: 2.25
6,OC1(c2ccc(Cl)c(C(F)(F)F)c2)CCN(CCCC(c2ccc(F)cc2)c2ccc(F)cc2)CC1 [Penfluridol],active: -4.44
7,CC1(C)O[C@@H]2C[C@H]3[C@@H]4CCC5=CC(=O)C=C[C@]5(C)[C@@]4(F)[C@@H](O)C[C@]3(C)[C@]2(C(=O)CO)O1 [Triamcinolone Acetonide],inactive: 0.0532
8,O=C(O)CCCc1ccccc1 [Sodium Phenylbutyrate],inactive: 0.651
9,Cc1cnc(NC(=O)C2=C(O)c3ccccc3S(=O)(=O)N2C)s1 [Meloxicam],inactive: -0.121
10,CC(C)(Oc1ccc(C(=O)c2ccc(Cl)cc2)cc1)C(=O)O [Fenofibric acid],inactive: 0.633
11,Cc1cc([C@@H](C)Nc2ccccc2C(=O)O)c2nc(N3CCOCC3)cc(=O)n2c1,inactive: 0.141
12,CCOc1nc2cccc(C(=O)O)c2n1Cc1ccc(-c2ccccc2-c2noc(=O)[nH]2)cc1 [Azilsartan],active: -7.05
13,COCCOC(=O)C1=C(C)NC(C)=C(C(=O)OC/C=C/c2ccccc2)C1c1cccc([N+](=O)[O-])c1 (configuration not stated) [Cilnidipine],inactive: -0.161
14,O=c1c(-c2ccc(O)cc2)coc2c([C@@H]3O[C@H](CO)[C@@H](O)[C@H](O)[C@H]3O)c(O)ccc12 [Puerarin],inactive: -0.114
15,Cc1cc(C)cc(C(=O)NOCCCCCC(=O)NO)c1,active: -4.71
16,CNC(=O)c1cc(COc2nnc(Nc3ccc(Cl)cc3)c3ccoc23)ccn1 [Telatinib],inactive: 0.821
17,CCCc1nc(C)c2c(=O)nc(-c3cc(S(=O)(=O)N4CCN(CC)CC4)ccc3OCC)[nH]n12 [Vardenafil HCl Trihydrate],inactive: 0.0923
18,O=C(O)/C=C/c1ccc(Cn2ccnc2)cc1 [Ozagrel],inactive: 1.1
19,O=C(O)/C=C/c1ccc(Cn2ccnc2)cc1 [Ozagrel HCl],inactive: 0.354
20,COc1cc2nccc(Oc3ccc(NC(=O)C4(C(=O)Nc5ccc(F)cc5)CC4)cc3)c2cc1OC [Cabozantinib malate (XL184)],inactive: 1.14
21,COc1cc2nccc(Oc3ccc(NC(=O)C4(C(=O)Nc5ccc(F)cc5)CC4)cc3)c2cc1OC,inactive: 1.28
